This is an account of results in paper PMC12040169 (PLOS Biology, 2025).

Structures are written as SMILES. The list shows a part of the results.

For the assay, the system named is T1, C. trachomatis L2/434/Bu expressing GFP (CTL2-GFP).
T1 construct: L2/434/Bu GFP intracellular growth in HeLa cells
Also noted: species or system HeLa; C. trachomatis total inclusion area by high-content imaging, normalised to DMSO. Conditions: total inclusion area; 28.5 h, 10 µM; inhibitor. A digest of the protocol: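 High-content imaging followed the bulk GFP/resorufin measurement: fixed, Hoechst-stained cells were scored for GFP inclusions and host nuclei per well. Total inclusion area and count served as growth proxies, nuclei number as the viability proxy. MIC calculation matched the bulk assay.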
For `CC(C)(C)C(=O)N[C@H]1C[C@@H](Cc2cc(CO)on2)C1(C)C` [CBK289260], the “% of control remaining” value stood at 100.285.

`Cc1nn2c(=O)cc(C(=O)O)[nH]c2c1-c1ccccc1` [CBK287129]: the “% of control remaining” value is 102.47.

`Clc1ccccc1CSc1nc[nH]n1` [CBK026950]: the “% of control remaining” value is given as 83.3673. For `Cc1ccc(S(=O)(=O)c2cccc(S(N)(=O)=O)c2)cc1S(N)(=O)=O` [CBK264535], the “% of control remaining” value was determined as 105.543. In the case of `COC(=O)c1ccccc1NC(=O)C(C)Oc1ccc(Cl)cc1C` (stereo not drawn) [CBK262388], the “% of control remaining” value is 99.4942. As to `COC(=O)c1ccsc1NS(=O)(=O)c1cc(F)c(Br)cc1F` [CBK039068], the “% of control remaining” value is reported as 101.169. Regarding `COCCc1noc(CC2CCN(c3ncncc3C#N)CC2)n1` [CBK304178], the “% of control remaining” value is recorded as 85.2791. As for `CCOc1cc(/C=C2\N=C(c3ccc(OC)cc3)OC2=O)cc(Br)c1OCC(=O)OC` [CBK102552], the “% of control remaining” value is 110.109. The result for `O=C(Nc1ccc(-c2nc3cc(-c4nc5cc(NC(=O)c6cccs6)ccc5[nH]4)ccc3[nH]2)cc1)c1cccs1` [CBK261614] reads 71.4818. Consider `O=C(NCCCn1ccnc1)c1cc2c(ccc3ccccc32)oc1=O` [CBK263543], for which the “% of control remaining” value was found to be 81.137.

On to `Cn1c(=O)c2c(nc(NCCOCCO)n2C)n(C)c1=O` [CBK288164], for which the “% of control remaining” value is 91.0923. For `Cc1nn(-c2ccc(N3CCNCC3)nn2)c(=O)c2ccccc12` [CBK270067], the “% of control remaining” value was 118.846. Take `CCn1c(=O)n(CC(=O)NCc2cccc(F)c2)c2cccnc21` [CBK283891]: the “% of control remaining” value turned out to be 86.1889. As to `CCC1CCCN(C(=O)Cc2c(C)nc(-c3cccnc3)[nH]c2=O)C1` (stereo not drawn) [CBK305801], the “% of control remaining” value was determined as 104.253. Then `Cc1cccc(C)c1N1C(=O)c2ccccc2NC12C(=O)Nc1ccc([N+](=O)[O-])cc12` (stereo not drawn) [CBK103749], with 94.9036.

As for `N#CCCc1ccc(Oc2ncc(C(F)(F)F)cc2Cl)cc1` [CBK161635], the “% of control remaining” value amounted to 104.733.

For `CN1CCN(C)C(COc2ccc(C(F)(F)F)cn2)C1` (stereo not drawn) [CBK113288], the “% of control remaining” value was found to be 97.662. Turning to `O=C(O)c1ccc(CN2CCC3(C/C=C/CNC(=O)c4ccccc4OCCNC3=O)CC2)cc1` [CBK292002], the “% of control remaining” value turned out to be 95.5883. In the case of `CNc1nc(C2CCN(C(=O)c3ccc(N4CCC(C)CC4)cc3)C2)nc2c1CCN(C)C2` (stereo not drawn) [CBK285835], the “% of control remaining” value was 102.963. As for `CCNC(=O)N1CCC(Oc2cc(C)ccc2F)(C(=O)O)CC1` [CBK307147], the “% of control remaining” value was found to be 97.4877.

As for `CCN(CCC(F)(F)F)C(=O)Cc1csc(NC(=O)c2ccoc2C)n1` [CBK305729], the “% of control remaining” value came out at 73.4743. `CC(=O)Nc1ccc(N2CCN(CCO)CC2)cc1OCCCOc1ccccc1` [CBK074317T]: the “% of control remaining” value is given as 61.6541. Then `Cn1c(=O)c2c(nc(CN3CCCCC3)n2CC(=O)c2ccccc2)n(C)c1=O` [CBK269563], with 117.568; and `COc1cccc(OCC2CCCN(C(=O)CCc3cnn(C)c3)C2)c1` (stereo not drawn) [CBK306931], with 74.6062.

For `CCCS(=O)(=O)n1c(=O)n(Cc2ccc(OC)cc2)c2ccccc21` [CBK106553], the “% of control remaining” value came to 122.051.

Regarding `CC1CCN(CC(O)c2ccc3c(c2)CCN3C(=O)C2CC2)CC1` (stereo not drawn) [CBK282927], the “% of control remaining” value is 85.756.

Consider `O=C1Nc2ccc(-c3ccccc3F)cc2C(=O)N2CCN(C(=O)C3CCNCC3)C[C@H]12` [CBK289592], for which the “% of control remaining” value was found to be 124.265. On to `O=C(O)c1cccc(Nc2nc(Nc3ccccc3)nc(N3CCCC3)n2)c1` [CBK286863], for which the “% of control remaining” value is given as 105.827. Then `CCCC(=O)NCC(C)c1nsc(NS(=O)(=O)c2cccc(Cl)c2C)n1` (stereo not drawn) [CBK200053], with 78.8916. The result for `Cc1cc(C)n(-c2ccccc2O)n1` [CBK026493] reads 27.991; that for `COc1ccc2c(c1)nc1n2CCC1OC(C)=O` (stereo not drawn) [CBK115379], 102.574; that for `OCCOc1ccc(Cl)c2cccnc12` [CBK000620], 99.9011.

For the molecule `CN1CCN(CC(=O)Nc2cc(N3CCOCC3)ccc2[N+](=O)[O-])CC1` [CBK047475], the “% of control remaining” value is on record as 86.3858. The result for `O=C(O)c1cnc(Cl)c(Br)c1` [CBK026874] reads 26.7072.

Regarding `O=[N+]([O-])c1ccc(OCCCNCCO)cc1` [CBK262244], the “% of control remaining” value came out at 96.3624. The result for `Cc1nnc(NC(=O)C2CCN(C(=O)c3cccc(F)c3)CC2)s1` [CBK307588] reads 75.0424; that for `COC(=O)c1cc(CN2CCCN(S(=O)(=O)c3ccc(C(=O)c4ccccc4)cc3)CC2)cn1C` [CBK062770], 82.6858.

As for `O=C(c1cccs1)N1CCOC(Cn2ccnc2)C1` (stereo not drawn) [CBK282256], the “% of control remaining” value is listed as 75.2027. Consider `Cc1c(Cl)cccc1NC(=O)c1cnc2scc(C)n2c1=O` [CBK287463], for which the “% of control remaining” value was 86.1825. Then `CC(=O)N1C[C@@H](N(C)C)[C@H](c2cn(C)c3ccccc23)C1` [CBK285007], with 105.805; and `CCOc1ccc(C(=O)NC2CC3CCC(C2)N3Cc2ccc(OC)cc2)cc1` (stereo not drawn) [CBK121398], with 96.3892; and `CSCCC(NC(=O)c1ccc(C#CC(C)(C)O)cc1)C(=O)O` (stereo not drawn) [CBK276698], with 89.6187.

Regarding `CC(=O)N(C)c1nc(-c2ccco2)ccc1C(=O)Nc1cc(C)nn1C` [CBK106356], the “% of control remaining” value came to 107.252. Then `CCOC(=O)CN1CCC(Oc2cncc(Oc3ccc(OC)c(OC)c3)n2)C1` (stereo not drawn) [CBK084405], with 94.5036; and `COCCn1c(SC(C)C(=O)NC2CC2)nc2ccc(Br)cc2c1=O` (stereo not drawn) [CBK305481], with 53.1054; and `COc1ccc(C)cc1NS(=O)(=O)CC(C)C` [CBK111346], with 50.3339.

Consider `O=C(NCc1c(F)cccc1F)C1(c2ccccc2)CCCC1` [CBK149527], for which the “% of control remaining” value amounted to 70.9673. Then `COc1cc(CN2CCNCC2)c2ccn(S(=O)(=O)c3cccc(Cl)c3C)c2c1` [CBK144484T], with 23.8755; and `O=C(Nn1cnnc1)c1cccc(C(=O)Nn2cnnc2)c1` [CBK091759], with 98.8264; and `Cn1c(-c2ccc(-c3nc4cnccc4n3C)cc2)nc2cnccc21` [CBK261423], with 104.433.

For the molecule `CCSc1nc(SCC)c2c3c([nH]c2n1)CCCC3` [CBK019936], the “% of control remaining” value stood at 36.2037. The result for `Cc1ccc(OCC(O)CN(C)S(=O)(=O)O)c([N+](=O)[O-])c1` (stereo not drawn) [CBK262062K] reads 88.066. `CN1CCN(c2ccc(-c3cc(NC4CCCCC4)ncn3)cn2)CC1` [CBK090899]: the “% of control remaining” value amounted to 74.0196.

For `COc1ccc(CCNC(=O)CCCc2cn(C)c3ccccc23)cc1OC` [CBK061740], the “% of control remaining” value was 98.1891. Turning to `O[C@H]1[C@H](NCC2CC2)[C@H]2CO[C@H](O2)[C@@H]1N1CCOCC1` [CBK288819], the “% of control remaining” value was 101.815. The result for `CCCS(=O)(=O)N1Cc2c(ncn2C)C[C@H]1C(=O)OC` [CBK288991] reads 101.959; that for `O=S(=O)(c1ccc(-c2ccccc2)cc1)N1CCCN(Cc2ccc(F)c(C(F)(F)F)c2)CC1` [CBK063115], 48.0258; that for `Cc1c(CN(Cc2ccccc2)CC2CCCO2)cnn1C` (stereo not drawn) [CBK283263], 90.8478.

Regarding `CCC(C)(CC(=O)O)CC(=O)N1CCC2(CC1)OCCc1c2[nH]c2ccccc12` (stereo not drawn) [CBK047051], the “% of control remaining” value amounted to 103.762. For `COCCn1c(SC(C)C(=O)N2CCNC2=O)nc2ccccc21` (stereo not drawn) [CBK305832], the “% of control remaining” value amounted to 87.0805. Then `Oc1ccc(-c2n[nH]c(C(F)(F)F)c2Oc2ccc(F)cc2)c(O)c1` [CBK264440], with 90.1259; and `COc1ccc(-c2nc(=S)c3c(n2CCCN(C)C)CC(C)(C)OC3)cc1` [CBK267844], with 115.678. Then `Cc1nccn1CCC(=O)NC(c1ccncc1)c1cccs1` (stereo not drawn) [CBK281440], with 102.025; and `COc1cccc(CNCC2CCCO2)c1OCc1ccccc1` (stereo not drawn) [CBK269798C], with 64.7624; and `CCCC/C=C/c1cc(NCCC)n2nccc2n1` [CBK037127], with 55.4593. The result for `OCC1CCC(O)C(CO)N1` (stereo not drawn) [CBK022827C] reads 73.6975. For `O=C(O)c1cccc(NC(=O)c2cc(-n3cnnc3)ccc2Cl)c1` [CBK268026], the “% of control remaining” value is listed as 107.926. As to `C[S+]([O-])CCn1c2ccccc2c2c(N3CCCC3)nc(N3CCCC3)nc21` (stereo not drawn) [CBK017586], the “% of control remaining” value was 110.635. As to `O=C(Cn1cccc(C(=O)NC2CCCCC2)c1=O)Nc1nc2c(s1)CCCCC2` [CBK286056], the “% of control remaining” value was 104.381.

With `Cc1ccn2cc(CNC(=O)CCC(C)N3CCN(C)CC3)nc2c1` (stereo not drawn) [CBK306628], the “% of control remaining” value was found to be 75.9576. The result for `O=C(CSc1nnc(Cc2ccccc2)n1-c1ccc(Cl)cc1)Nc1cc(Cl)ccc1O` [CBK269061] reads 98.997. The result for `Cc1cc2c(s1)c1cnn(Cc3ccncc3)c(=O)c1n2C` [CBK284188] reads 72.1552; that for `CCn1c(CN2CCC(n3nc(C)cc3C)CC2)nc2ccccc21` [CBK281615], 80.6192; that for `CS(=O)(=O)Nc1ccc2cc(-c3ccsc3)cnc2n1` [CBK085665], 98.3355. Then `CC(=O)N1CCN(CC[C@@H]2CC[C@H](O)[C@@H](C(=O)N(C)Cc3ccccc3)O2)CC1` [CBK288716], with 101.697; and `COCc1nnc(Sc2nccc(C(F)(F)F)n2)s1` [CBK093790], with 81.8809. `CC(C)Nc1nccnc1-c1ccc(CO)cc1` [CBK088519]: the “% of control remaining” value worked out at 72.4317.

In the case of `CC(C)N(Cc1cccnc1)C(=O)Cn1c(C2CC2)nc2ccccc21` [CBK306156], the “% of control remaining” value was 92.6189. In the case of `c1ccc2nc(N3CCCC3)c(Sc3nccs3)nc2c1` [CBK093794], the “% of control remaining” value amounted to 84.0685.

For the molecule `COCCOC1CN(Cc2cn(-c3ccc(Br)cc3)nc2C(C)C)C1` [CBK304852], the “% of control remaining” value is given as 87.4677. The result for `OCn1nc(-c2ccc(Cl)cc2Cl)oc1=S` [CBK288410] reads 50.3988.
